# Source: PubChem BioAssay AID686978 (National Center for Advancing Translational Sciences (NCATS), 2013)
# Out of some 420,000 compounds screened, about 64,000 (15%) were called active. The inconclusive results got no clear call from the source; some entries with a clear call stand among them for comparison. The call rests on the fitted dose curve; in most records, active means well fitted inhibition curve with a large enough effect; inconclusive means small, poorly fitted or top-dose-only effect; inactive means flat fitted curve, though single readings scatter. Potencies of inconclusive entries are left out as doubtful fits.
# Experiment: qHTS for Inhibitors of human tyrosyl-DNA phosphodiesterase 1 (TDP1): qHTS in cells in absence of CPT; further: nearly all actives have a fitted effect of over 55% in size
# Conditions: DT40 Tdp1-/- hTDP1 cells, no CPT, ATP luminescence, 48 h; activity change, negative = growth inhibition: at 46.2 µM (top of the series) unless noted
# Summary of the method: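 Compound effects on proliferation are scored in DT40 Tdp1-/-;hTDP1 cells in the absence of CPT. ATP levels (CellTiter-Glo luminescence) are recorded after a ≥48 hr, 37 °C incubation.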
# On the % scale 0 is the no-effect control and ±100 the full control effect; potency means the concentration at half of the fitted maximal effect; tags describe the fitted curve by direction and shape.
SMILES,"activity change, negative = growth inhibition",Potency
OC(COc1c(F)cc(Br)cc1F)CN1CCOCC1 (configuration not stated),inactive: 2.09%,–
NS(=O)(=O)c1ccc(NC(=O)CSc2nc3ccccc3n2-c2ccccc2)cc1,–,"inconclusive [inhibitor, single point]"
COC(=O)c1ccc(-c2ccco2)n1Cc1nc(-c2ccc(OC)c(OC)c2)oc1C,–,active: 16.4 µM
CCOc1ccc(/C=C/C(=O)c2cccs2)cc1,–,"inconclusive [inhibitor, partial curve, poor fit]"
O=[N+]([O-])c1ccc(O)c(-c2nn[nH]n2)c1,–,"inconclusive [inhibitor, single point]"
Cc1ccc2c(c1)N(Cc1ccc([N+](=O)[O-])cc1)C=NS2(=O)=O,inactive: -22.3%,–
COc1ccc(Br)cc1CNC(=O)c1ccc2c(c1)N(Cc1ccc(C)cc1)CCS2,–,"inconclusive [inhibitor, full curve]"
O=C(COc1ccc(F)cc1)N/N=C/c1cccc2cccnc12,–,active: 16.4 µM
CC(C)(C)N(Cc1ccccc1)C(=O)CSc1nnc(CNc2ccc(F)cc2)o1,–,"inconclusive [inhibitor, single point]"
CCn1c(CCl)nc2cc(S(=O)(=O)N3CCOCC3)ccc21,–,active: 2.91 µM
C/C(=N\OCC(=O)Nc1ccccc1Br)c1cccs1,–,"inconclusive [inhibitor, single point]"
CSCCNC(=O)C1(C)CCN1C(=O)c1cc(C)n(C)n1 (configuration not stated),inactive: -2.16%,–
COc1ccc(-n2cc(C(=O)c3ccc4ccccc4c3O)cn2)cc1,–,"inconclusive [inhibitor, single point]"
Cc1ccccc1C(=O)OC1OC(=O)C(Cl)=C1Nc1ccc(C(=O)O)cc1 (configuration not stated),–,"inconclusive [inhibitor, single point]"
CN(CC(=O)Nc1ccccc1Br)C(=O)COc1cccc2c1OC(C)(C)C2,inactive: -6.88%,–
O=C(CN1C(=O)CSc2ccccc21)N/N=C/c1ccco1,inactive: 16.7%,–
Nc1ccc(/C=C/C(=O)c2cccs2)cc1,inconclusive: -32.2% [inhibitor],–
COc1ccccc1-c1cc(C(F)(F)F)nc(N2CCCC2)n1,–,"inconclusive [inhibitor, single point]"
Cc1ccc(OCCNS(=O)(=O)c2ccc(N3CCCC3=O)cc2)cc1,–,active: 5.8 µM
CN1C(C(=O)Nc2ccc(OC(F)(F)F)cc2)=CC(c2ccco2)=NS1(=O)=O,–,"inconclusive [inhibitor, single point]"
NC(=O)NN=C1c2cc(S(=O)(=O)N3CCOCC3)ccc2-c2ccc(S(=O)(=O)N3CCOCC3)cc21,inactive: 3.04%,–
O=C(c1cc2cc([N+](=O)[O-])ccc2oc1=O)n1cccn1,inconclusive: -19.2% [inhibitor],–
O=C(NCCNCc1ccccn1)c1ccco1,inactive: 4.42%,–
COc1cc2c(cc1OC)C(C)N(C(=O)c1sccc1C)CC2 (configuration not stated),inactive: -16.2%,–
CCOc1ccc(-c2cc(N)n(S(=O)(=O)c3ccc(OC)cc3)n2)cc1,–,"inconclusive [inhibitor, single point]"
COc1cccc(NC(=O)c2cc3ccccc3oc2=O)c1,inconclusive: -31.5% [inhibitor],–

SMILES,"activity change, negative = growth inhibition",Potency
COc1cc(C(=O)/C=C/c2cccnc2)c([N+](=O)[O-])cc1OC,–,active: 5.8 µM
O=C(COC(=O)Cc1cccs1)Nc1ccc(F)c(F)c1F,inactive: -6.1%,–
COc1ccccc1-c1noc(-c2ccc(NC(C)C)c([N+](=O)[O-])c2)n1,–,"inconclusive [inhibitor, single point]"
O=C(O)c1ccc(/C=C/c2nc3ccccc3c(=O)[nH]2)cc1,inactive: -0.79%,–
O=C(CSc1nncc(=O)[nH]1)NC1CCCCC1,inactive: 2.86%,–
COc1ccc(-c2nn(-c3cccc(F)c3)c3c2cnc2cc(OC)c(OC)cc23)cc1,–,"inconclusive [inhibitor, partial curve]"
CC(=O)NCCC(Cc1ccccc1)c1ccco1 (configuration not stated),inactive: -6.03%,–
CCOC(=O)CSc1nnc(NC(=O)c2cccc(S(=O)(=O)N3CCCC3)c2)s1,inactive: 13.6%,–
C=CCNC(=S)NCC1COc2ccccc2O1 (configuration not stated),–,"inconclusive [inhibitor, full curve]"
COC(=O)C1=C(C(=O)OC)SC2(S1)C(C(=O)OC)=C(C(=O)OC)SC1=C2c2cc(C)cc(C)c2NC1(C)C,–,"inconclusive [inhibitor, partial curve, poor fit]"
c1ccc(-c2cc(-c3ccncc3)nc3ccc4ccccc4c23)cc1,–,"inconclusive [inhibitor, single point]"
O=c1[nH][nH]c2c1[C@H](CCc1cccc(Cl)c1)O[C@H](C1CC1)C2,–,"inconclusive [inhibitor, partial curve]"
CCc1ccc(OCCCn2c(CCNC(=O)C3CCCCC3)nc3ccccc32)cc1,inactive: -21.1%,–
CC1(C)C(c2ccccc2)=NC(c2ccc(Br)cc2)N1O (configuration not stated),–,"inconclusive [inhibitor, partial curve]"
CSCC[C@H](NC(=O)c1ccc(Cl)c([N+](=O)[O-])c1)c1nc2ccccc2[nH]1,–,"inconclusive [inhibitor, single point]"
COc1cc(C#N)ccc1OCC(=O)Nc1ccc(C)c(S(=O)(=O)N2CCOCC2)c1,–,"inconclusive [inhibitor, single point]"
OC(c1ccccc1)c1nc(-c2cc3ccccc3o2)cs1 (configuration not stated),inactive: -16.3%,–
CC1(C)CC(=O)c2cc(C(=O)NCc3ccco3)c(=O)n(-c3ccccc3)c2C1,inactive: -24.8%,–
O=C(Nc1ccon1)C1CCN(S(=O)(=O)c2cccs2)CC1,–,active: 23.1 µM
O=C(CN1C(=O)CSc2ncccc21)N1CCOCC1,inactive: 0.179%,–
CCOc1ccccc1CN1CCC(n2nccc2NC(=O)CCCc2ccccc2)CC1,–,active: 18.4 µM
COc1ccc(-c2cc(C(F)(F)F)n3nc(C(=O)N(C)Cc4ccccc4)cc3n2)cc1OC,–,"inconclusive [inhibitor, single point]"
O=C(OC1CCOC1=O)c1ccc(NS(=O)(=O)c2cccs2)cc1 (configuration not stated),inactive: -8.42%,–
CN1CCN(CCC2Oc3cc([N+](=O)[O-])ccc3NC2=O)CC1 (configuration not stated),inactive: -1.83%,–
CC1(C)Cc2c(ccc3ccccc23)C2=C(C(=O)N3CCCC3)C(=O)C(=O)N21,–,active: 8.2 µM
CCOC(=O)c1sc2nc(C)nc(NCc3ccccc3)c2c1C,–,active: 20.6 µM

SMILES,"activity change, negative = growth inhibition",Potency
CC[N+]1(C)CCC(O)(/C=C/c2ccccc2)C(C(=O)/C=C/c2ccccc2)C1 (configuration not stated),–,active: 0.13 µM
Cc1[nH]c2ccccc2c1SCC(=O)NC1CCCCC1,–,"inconclusive [inhibitor, partial curve]"
COc1cnc(-c2ccccn2)[nH]c1=O,inactive: 1.5%,–
Cc1ccc(S(=O)ONc2cccc(NOS(=O)c3ccc(C)cc3)c2)cc1 (configuration not stated),–,"inconclusive [inhibitor, single point]"
CCc1ccc(NC(=O)Cn2cc(S(=O)(=O)N3CCCC3)c(S(=O)(=O)N3CCCC3)c2)cc1,inactive: -1.91%,–
Fc1cccc(F)c1C(Nc1nncs1)Nc1nncs1,inactive: -12.1%,–
FC(F)(F)c1ccccc1-c1cc(NCc2ccccc2)ncn1,–,active: 9.2 µM
COc1ccc(C(=O)NCC(=O)N/N=C/c2ccco2)cc1OC,inactive: 4.29%,–
N#Cc1cc([N+](=O)[O-])ccc1Oc1cccc(/C=N/NC(=O)c2cccc(Cl)c2)c1,–,active: 20.6 µM
CCOC(=O)CSc1nnc(CNc2ccccc2Cl)n1-c1ccccc1,–,"inconclusive [inhibitor, full curve, poor fit]"
S=C(NCc1ccco1)N1CCN(c2nc(-c3ccccc3)cs2)CC1,–,"inconclusive [inhibitor, single point]"
COc1cc(/C=N\Nc2cc(=O)n(C)c(=O)n2C)ccc1O,–,"inconclusive [inhibitor, single point]"
O=C(NC1CC(=O)N(c2ccc(F)cc2)C1)C1CC1 (configuration not stated),–,"inconclusive [inhibitor, single point]"
O=C(c1ccco1)N1N=C(c2ccc(Br)cc2)CC1(O)C(F)(F)F (configuration not stated),–,"inconclusive [inhibitor, single point]"
COC(=O)[C@]12CCCCC=C1N(CCc1ccc(OC)c(OC)c1)C(=O)[C@H](CC(=O)N1CCCCC1)C2,–,"inconclusive [inhibitor, single point]"
COc1cc(NC(=O)CCCn2c(=S)[nH]c3ccccc3c2=O)cc(OC)c1OC,–,"inconclusive [inhibitor, single point]"
COCCNC(=O)C(c1cccnc1)N(Cc1ccccc1)C(=O)Cn1nnc2ccccc21 (configuration not stated),inactive: -15.9%,–
CC(C)NC(=O)CCN1C(=O)c2ccccc2Sc2ncccc21,–,inactive
CCCOC(=O)C1=C(C)NC(=O)NC1c1cc2c(cc1Br)OCO2 (configuration not stated),inactive: -14.6%,–
Clc1cccc(Cl)c1OCCOCCNCc1ccccc1,–,"inconclusive [inhibitor, single point]"
CCOC(=O)C1CCN(c2ncnc3c2oc2ccc(Cl)cc23)CC1,–,"inconclusive [inhibitor, partial curve]"
COCC(=O)N(CCc1ccccc1)Cc1cc2cc(C)ccc2nc1Cl,–,"inconclusive [inhibitor, single point]"
Cc1ccc(NCCC(=O)c2cccs2)cc1Cl,–,active: 9.2 µM
CC(=O)c1ccc2c3c(cccc13)C(=O)N(CCc1ccccc1)C2=O,inactive: -28%,–
O=C(c1ccc([N+](=O)[O-])cc1)N1CCN(c2ncc(Br)cn2)CC1,–,"inconclusive [inhibitor, partial curve]"
